# Results published in patent US20250333515A1 (VOR BIOPHARMA, published 2025).
# T1: CLL-1 on the surface of CLL-1-positive AML cell lines (HL-60 WT, U937) (human, UniProt Q5QGZ9 1-265)
# T1 construct: whole, on cells; also called HL-60 WT cells; U937 cells
# T1 sequence (looked up): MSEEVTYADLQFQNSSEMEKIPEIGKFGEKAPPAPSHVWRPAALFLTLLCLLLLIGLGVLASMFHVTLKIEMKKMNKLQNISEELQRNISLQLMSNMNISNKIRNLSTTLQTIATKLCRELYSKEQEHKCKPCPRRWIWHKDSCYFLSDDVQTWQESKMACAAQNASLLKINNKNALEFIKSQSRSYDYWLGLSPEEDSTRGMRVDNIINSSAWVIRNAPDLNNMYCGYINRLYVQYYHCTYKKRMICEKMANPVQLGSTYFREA
# T2: biotinylated recombinant CLL-1 protein (UniProt Q5QGZ9 65-265, limits assumed, biotinylated (site not stated))
# T2 construct: also called CLEC12A
# T2 sequence (looked up): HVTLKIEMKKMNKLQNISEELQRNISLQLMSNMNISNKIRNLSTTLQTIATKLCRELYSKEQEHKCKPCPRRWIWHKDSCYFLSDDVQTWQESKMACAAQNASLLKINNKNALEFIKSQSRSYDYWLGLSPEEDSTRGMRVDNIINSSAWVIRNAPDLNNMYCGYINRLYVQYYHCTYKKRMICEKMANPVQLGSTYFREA
# B1: Anti-CLL-1 Binder Clone 39 (scFv)
# scFv: [no letters for about 100 residues]GGGGSGGGGSGGGGSQVQLVQSGAEVKKPGASVKVSCKASGYTFTGYYMHWVRQAPGQGLEWMGWMNPSSGNTGYAHEFQGRVTMTRNTSTGTAYMELSGLRSEDTAVYYCARGDTGDSFDYWGQGTLVTVSS
# notes: scFv (VL-linker-VH); not shown: FLAG tag
# B2: Anti-CLL-1 Binder Clone 5 (scFv)
# scFv: [no letters for about 100 residues]GGGGSGGGGSGGGGSQVQLVESGGGVVQPGRSLRLSCAASGFTFSSYGMHWVRQAPGKGLEWVAFISHDGSNKYYADSVKGRSTISRDNSKSTLFLQMNSLRDEDTAVYFCAREGQLTTSWDFFDYWGHGTLVTVSS
# notes: as for B1
# What was measured:
# [1] = target: T1, CLL-1 on the surface of CLL-1-positive …; assay: flow cytometry, HL-60 WT, 200 nM; secondary only 5600
# Procedure: HL60 WT, U937, or HL-60 CLL-1 knockout (KO) control cells were counted, washed in PBS and mixed with 1 ml of Fixable Viability dye eFluor 780 (diluted at 1:1000 in PBS) then incubated at room temperature for 10 minutes to distinguish Live/Dead cells. Subsequently the cells were washed once with FACS Buffer (PBS with 2% FBS) and incubated with human TruStain FcX™ (Fc block diluted at 1:10 in FACS buffer) at room temperature for 5 minutes. Fc blocked cells were stained with 50 μL of the primary CLL-1 antibody (at 200 nM concentrations) and incubated at 4° C. for 30 minutes in the dark. Cells were subsequently stained with 100 μL of secondary antibody (AF488 Rabbit anti-FLAG-tag diluted at 1:1000) incubated at 4° C. for 30 minutes in the dark. Cells were washed and flow cytometric analysis was performed using flow cytometry and data analysis was performed using FlowJo.
# [2] = target: T2, biotinylated recombinant CLL-1 protein; assay: ELISA; biotinylated CLL-1 on neutravidin plate, FLAG-tagged binder, anti-FLAG HRP
# Procedure: Dose-depending binding activities were analyzed by ELISA. COSTAR® microtiter plates were coated with 1 μg/mL neutravidin protein. Following washing, neutravidin-coated wells were seeded with 100 nM of biotinylated recombinant CLL-1 protein. Following washing, purified FLAG-tagged CLL-1 antibody binders were added to the wells and subsequently detected by mouse anti-FLAG tag HRP conjugate (Sigma).
# [3] = target: T1, CLL-1 on the surface of CLL-1-positive …; assay: multi-point flow cytometry on HL-60 WT cells, FLAG-tagged binder, anti-FLAG AlexaFluor 488
# Procedure: Target cell staining was assessed relative to control samples comprising cells stained with secondary antibodies only (see FIG. 6). Multi-point FACS via flow cytometry was performed to assess dose-depending binding of CLL-1 antibody binders to the cell surface of HL-60 WT cells. Un-fixed, un-permeabilized cells were incubated with various concentrations of purified FLAG-tagged anti-CLL-1 antibody clones and cell-surface binding was detected by subsequent incubation in the presence of rabbit anti-FLAG tag antibody AlexaFluor 488-conjugate antibody (R&D Systems).
Binder,Geometric Mean : B530-H [1],EC50 [2] [nM],EC50 [3] [nM]
B1,20500,1.9,0.7
B2,15600,1.2,0.4
